# Test results: the supplement of paper PMC11417369
# Some of the results follow.
# System: PF3D7_0420300 AP2 domain 1 (GST-tagged)
# Assay: gcPBM binding intensity (ln(normalized median fluorescence intensity)); higher = stronger DNA binding
# Procedure, shortened: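 The binding buffer was 1× PBS containing 1% milk, 0.2 mg/ml BSA, 0.5% salmon testes DNA and 0.03% Triton X-100. In it, GST-tagged P. falciparum DNA-binding domains expressed in E. coli were applied for 1 h to an Agilent 4 × 180k array of primer-extended double-stranded 36-bp intergenic genomic probes plus negative controls. Binding intensity, read with Alexa488 anti-GST antibody and a 488 nm scan, is the highest Masliner-normalised natural-log median intensity across replicate spots of either probe orientation.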
row,Sequence,gcPBM binding intensity (ln)
1,TAAAATTATATAAAGGAACACACATTTTATTTTATT [CACACA_site8423],9.36
2,TCATTGTTAAGCTGAAGTACTTATAATTACATCGAG [XGTACX_site6340],9.04
3,AATATATTTTAATATACACACATATCTGCTCTTTAA [CACACA_site6130],9.5
4,TGTCAATCATATAAATGTACATTTTAAATGAGGTGT [XGTACX_site7391],9.26
5,TATTAGCATGTTATTACACACAATATAAAATATATA [CACACA_site1401],9.34
6,TGTATAAAACATGGGTGTACTGAACTCAATCATATA [XGTACX_site1215],9.43
7,AAAAGTAACAAAGCTACACACATTTAAATAAACATA [CACACA_site1421],9.69
8,AAAATAACAAAATAAAGTACTTTTAAAAGATATAAT [XGTACX_site7632],9.58
9,GATTTTCTAATTTCTACACACATATAAGAATATTCA [CACACA_site7340],9.53
10,TTTTTAATTCAAACAATAATATGTTATATTTCAAAT [TGCATGCA_negctrl_site27],8.88
11,TTTATTTCTATATTTACATGCAAAGGGTTAGTTATA [TGCATGCA_site983],9.02
12,TTTTTTTTTTTCATGTGTACATATATTTTCACTTTA [XGTACX_site4475],9.37
13,GATCTTTTTTTTCTTACTTTACAATTTTTTTTTTAC [XGTACX_negctrl_site101],9.5
14,AAGAAAAAGAATAGACGGACAACTAATATAAAATAT [XGTACX_site7905],9.76
15,GTTTTACACAGACATGCATGTGAAAATTTGATGGTA [TGCATGCA_site308],9.34
16,TATCATCATGTATGTACACACATACCTATATTATGT [CACACA_site6768],9.66
17,TCTTATTTAATTAAACAAAAGAAAAAGAAAGAAAAG [CACACA_negctrl_site1569],9.14
18,TTAGAAGGGATTAAAGTGCAAAATAGGATTAGAGTA,9.41
19,TACAAGTATAAATAAGCACACATGTGTATATGTACA [CACACA_site7911],9.6
20,TTTTTTTTTCCTTCTTGTACATATTATATATACATA [XGTACX_site5988],9.38
21,TGGAACGTAATAAAATGTACATACGTTTTTCATATG [XGTACX_site6229],9.12
22,AACACATACATATATGCACACATTTTATTCCATTAT [CACACA_site2834],9.76
23,TTTTTTTTTTTTTGTACATGCAAATATTATGAACAC [TGCATGCA_site571],8.85

row,Sequence,gcPBM binding intensity (ln)
1,GACAAATTAATCGATTGTACACAATTTGTTTCGTTG [XGTACX_site35],9.34
2,TTCACATATATATAACGTACATTATTATTATTCTGA [XGTACX_site6006],9.28
3,TTTTCATATATTTATTGTACATATTACATATATAAT [XGTACX_site2425],9.4
4,TTTTATAAATATTTTTGTACACATTTAAATATTATT [XGTACX_site4973],9.2
5,ATTTATAAATCAAAGTGTACATATGTTTTATTTTTT [XGTACX_site804],9.35
6,TTTTTTTAATAAAAGTGTACCAAATTATATACACAT [XGTACX_site6811],9.19
7,AGAGAGAACGGTATAACATGCAATAAATTTCAGAAG [TGCATGCA_site423],9.41
8,TTTTATTATATGGAGGTGCATATATAATAATATAAT [GTGCAC_site9477],9.16
9,ATCGGTAATATTAACACACACATTTATTTATATTTA [CACACA_site6638],9.72
10,TTCTTTTTAAATATACTAATTATGTATAAAACAGAA [GTGCAC_negctrl_site131],8.8
11,ATGTATGTAATAAAAAGTACATATGTTCATAATAAA [XGTACX_site842],9.36
12,TTTTTTTTTTTTTTAACACACATATAAATATTTTTC [CACACA_site6985],9.11
13,ATTCTTGTTATATAAGGTACAGAACAAAATATAAAA [XGTACX_site5510],9.11
14,TTTGGGATAAAACAAAGTACTAACAAAATATATAAT [XGTACX_site8240],9.35
15,TGCATTTTACTTGTTACACACATATAAAATTAACCA [CACACA_site7387],9.6
16,TTTTTCTATTCCATTCAACACACAAAAATGTATGCT [CACACA_site8268],9.37
17,AAAGTTTTAAGAAAATGTACATAAGTATACATATAT [XGTACX_site1293],9.18
18,AAATGGAGTTAATATTGTACATATATATATATATAT [XGTACX_site5452],9.26
19,TAATAATAACCGTTATGTACACAATTTTGTGAACAT [XGTACX_site8053],9.25
20,GATGGAATCTAATTTACATGCAGTGATATAATAAAT [TGCATGCA_site1031],9.06
21,ATTTATTTATTTATATGTACATATATATATATATAT [XGTACX_site339],9.26
22,TACAGACAGAAACACACACACACGCATAAAAAAAAA [CACACA_site1514],10
